# From article PMC6212790
# The other results are listed elsewhere or left out. At the low end of the ranking, values are background and their order means little.
# Molecular target: T1, GST-Rok-C97-191 (UniProt O34857)
# T1 sequence: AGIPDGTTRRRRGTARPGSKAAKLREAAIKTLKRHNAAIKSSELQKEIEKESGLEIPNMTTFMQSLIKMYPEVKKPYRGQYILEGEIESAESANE
# Experiment: protein binding microarray;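 note: rank score from −0.5 (least bound) to 0.5 (best bound)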
# Conditions: Rok is a gene silencer of Bacillus subtilis; high values mean tight binding; most listed sequences are background and not binding sites; double strand, one strand shown
row,Sequence,binding signal [E-score]
1,AGCGCCAG,-0.291
2,CCATGGAA,-0.0981
3,ATCTAAAA,0.189
4,CAGAGAAA,-0.0819
5,CTGGATTC,-0.121
6,CCTTGTAC,0.0856
7,TCCTTTAA,-0.194
8,ACCGGGAT,-0.116
9,ACGGAAAG,-0.117
10,AATTTTGG,0.126
11,CCGCTGAG,-0.265
12,ATAGCTTG,0.251
13,ACGACTAT,0.155
14,TGTACCAA,0.176
15,CCACTTCC,-0.248
16,TACTCTAA,0.0401
17,AAATGCTT,-0.000293
18,GAATTGCC,0.0281
19,GGGGCAAA,-0.128
20,GCTTCGCA,-0.148
21,GATCTACC,0.35
22,ACCCAAGA,-0.0224
23,GAAACGTC,-0.392
24,TCAAGGCA,-0.0684
25,CCAGCGCG,-0.147

row,Sequence,binding signal [E-score]
1,GCGTTCCC,-0.0567
2,AAAGGAAG,-0.134
3,GATTGCAA,0.139
4,CGTTCCCA,-0.189
5,AATGTATG,0.309
6,AGCAATGA,-0.189
7,CGCCTCCG,-0.335
8,AAACCTCC,-0.149
9,ACTCACCG,-0.00926
10,GCAGCGGC,-0.386
11,CGTAAGAC,-0.0605
12,GAAGTCAA,-0.0412
13,GAATCGAC,-0.0587
14,GTGTGAAA,-0.11
15,AGTACCGC,-0.121
16,AATGTTCT,0.115
17,AGTTGAAT,0.114
18,AAATTGTT,0.264
19,GTTAATCA,-0.00641
20,GGCGTATA,0.125
21,GCCTTCGC,-0.0744
22,CTTGAAAC,-0.146
23,CTGGTAGA,0.324
24,CCCTGCTA,-0.179
25,AAGAAAGA,0.0949

row,Sequence,binding signal [E-score]
1,CCGTAACA,0.155
2,ACCCGTAA,0.00435
3,TGGCTTAA,-0.0768
4,CGAGCTCA,-0.166
5,CTGGGCTC,-0.298
6,ACCAGATC,-0.156
7,ACTATCGA,0.348
8,ATATGAAG,0.167
9,CTATGCAA,0.132
10,GCCGACCC,-0.315
11,GAAGTGAC,0.0733
12,GGTCGGTA,-0.244
13,TAAGAGGA,-0.145
14,CGACACAG,-0.0667
15,CCAGTATA,0.143
16,GCCCAGGA,-0.208
17,ACCTAAAA,0.295
18,GGGAGTCA,-0.148
19,AGCACTGA,-0.162
20,CACTACAG,-0.165
21,ATTGGTAA,0.258
22,AAGTTCAA,0.137
23,CTGAGCAC,-0.128
24,AAGGTGTA,0.179
25,TCACAGAA,0.0216

row,Sequence,binding signal [E-score]
1,AGATTATA,0.253
2,AGTACTCC,0.00355
3,GTTTGGGA,0.0143
4,CCGCGAAA,0.0383
5,CAGCCAAC,-0.0467
6,AGATCGGA,0.00178
7,CATGAATC,0.13
8,ACGTATTA,0.185
9,CCACATAC,0.16
10,CGTTCTCC,-0.321
11,ACTGATCT,-0.0994
12,AGGAGCAG,-0.274
13,ATTAGCGG,0.263
14,ACTAGACC,0.0212
15,TATGCAGA,0.151
16,AGTTAGAC,0.109
17,ACCAGGCC,-0.215
18,AAACAGAG,0.00841
19,AGTTGGCC,0.0352
20,ACCACAGC,-0.0796
21,ACCGCGCA,-0.212
22,ACCCGACG,-0.264
23,ACCCCCCG,-0.344
24,ATTTGTCA,0.191
25,TAATACTA,0.401

row,Sequence,binding signal [E-score]
1,ACACAAAA,0.109
2,GGGGAATA,0.0422
3,GCTGTCTA,-0.142
4,CTTCGGTC,-0.106
5,ACAAACAA,-0.0928
6,AGGGACAG,0.00525
7,ACTAGGTG,0.242
8,ATCTTAAT,0.148
9,AGACTAAA,0.0407
10,CTGTACAG,-0.0808
11,ACGAACCA,-0.0855
12,ACTCACTC,-0.0235
13,CGTCCCTC,-0.405
14,AATGTGAT,0.149
15,GACTCTGA,-0.12
16,AAAAGAAT,0.157
17,ACGGCCAA,-0.00204
18,CCAAGGAC,-0.176
19,CAAGGGAC,-0.0666
20,CGTGTAAG,0.00614
21,GCCATTCA,0.0838
22,AATGATGT,0.146
23,ATGCGTCA,-0.1
24,CTGGGCGA,-0.263
25,CGCACTAA,0.255

row,Sequence,binding signal [E-score]
1,CCGTTAGG,-0.335
2,AACTCGAC,-0.0777
3,AGTGAGAT,-0.014
4,AAGTGCGG,0.009
5,CCCGCCCC,-0.318
6,ATACCTTA,0.0226
7,AGGACCCA,-0.179
8,CGAGTCCC,-0.169
9,ACTCGCGC,0.0683
10,ACGACCGG,0.0208
11,AAAGGGTG,-0.259
12,AGCTTTTA,0.21
13,TGGGTTAA,0.109
14,GCGCACCC,-0.185
15,CGCTATTC,-0.0121
16,GAACACCC,-0.172
17,CCGAGAAG,-0.0311
18,GTAGCATA,0.15
19,AGCACGCT,-0.216
20,ACAATTAA,0.158
21,CATTGGGC,0.00461
22,GAGTGTTA,-0.0461
23,GATCAGCA,-0.0559
24,GATCTTAA,0.231
25,CTAGGCGC,-0.195

row,Sequence,binding signal [E-score]
1,ATGTGAGA,0.0428
2,GTGTGGGA,-0.0368
3,AGGTTGTA,0.303
4,AACGCGTG,0.00572
5,GACCCTAA,-0.223
6,CTACACCC,0.0821
7,AGGTACGC,-0.246
8,CTCAAATA,-0.146
9,CTCTCACC,-0.313
10,CCATGGTA,0.22
11,CGGATTGC,-0.185
12,ATCGAAAA,0.0636
13,CTAGCTCA,0.117
14,CTAGGCGA,-0.0333
15,GAGGACCA,-0.255
16,TGCGCTAA,-0.0024
17,CCGGATTC,0.0415
18,CGACAGTC,-0.0879
19,GCAGCAAC,-0.161
20,GCAGTAGA,0.287
21,ACGAACTG,0.0417
22,CAACAGAG,-0.0332
